Results published in PubChem BioAssay AID602310 (National Center for Advancing Translational Sciences (NCATS), 2012).
Screen size: about 410,000 compounds; about 310 (0.076%) were called active. Inconclusive means that the source gave no clear call. Such entries were picked first, then a sample of the others. Calls come from the whole dose curve; as a rule, active = well fitted curve in the direction sought with a large enough effect; inconclusive = small, poorly fitted or top-dose-only effect; inactive = flat fitted curve, though single readings scatter. A potency beside an inconclusive call is a rough fit, not a confirmed value.

biological target: DNA dC->dU-editing enzyme APOBEC-3G (Homo sapiens) (UniProt Q9HC16); assay: qHTS for Inhibitors of Vif-A3G Interactions: qHTS; conditions: HeLa A3G-eYFP + Vif (tagged APOBEC3G with the HIV-1 protein that degrades it), YFP fluorescence, overnight; series mostly up to 46.1 µM; activity, negative = active: at the top concentration; note: nearly all actives have a fitted effect of over 60% in size;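 for activity, negative = active: hits raise eYFP signal because A3G escapes Vif-driven loss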
Summary of the method: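 Read-out is eYFP fluorescence (Ex 488/Em 500-530) from Vif-expressing HeLa A3G-eYFP cells; more signal means A3G escaped Vif-mediated degradation. Cells plated overnight, compound pinned in, incubated overnight at 37 deg C.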
% is set by controls: 0 for no effect and ±100 for the full control effect; potency is the fitted concentration of half-maximal effect; tags give direction and shape of the fitted curve.

Chain of UniProt Q9HC16 (Q9HC16 whole entry, looked up): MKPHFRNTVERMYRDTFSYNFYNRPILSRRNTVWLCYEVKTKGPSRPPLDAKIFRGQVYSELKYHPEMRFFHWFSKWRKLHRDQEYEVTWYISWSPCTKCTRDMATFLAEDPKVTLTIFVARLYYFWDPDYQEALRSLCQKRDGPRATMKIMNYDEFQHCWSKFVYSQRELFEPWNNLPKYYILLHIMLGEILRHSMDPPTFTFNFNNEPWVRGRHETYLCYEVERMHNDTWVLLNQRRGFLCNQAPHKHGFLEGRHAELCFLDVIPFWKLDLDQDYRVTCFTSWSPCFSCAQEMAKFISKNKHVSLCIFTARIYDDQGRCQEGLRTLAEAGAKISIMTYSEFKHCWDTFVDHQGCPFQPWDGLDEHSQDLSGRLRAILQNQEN

Q: With COc1ccc2nc(NCc3ccccc3)[nH]c2c1 as the molecule, how does the Potency read?
A: inconclusive: 12.6 µM [inhibitor, single point]

Q: How did the Potency turn out when Cc1cc2c(cc1C)C(c1cccc([N+](=O)[O-])c1)CC(=O)N2 (stereo not given) was run?
A: inconclusive: 17.8 µM [inhibitor, single point]

Q: How did the “activity, negative = active” value turn out when CCN1C(=NCc2cc(OC)c(OC)c(OC)c2)N[C@@H](c2ccccc2)C(C(=O)OC)=C1C was run?
A: inactive: 0.96%

Q: O=[N+]([O-])c1ccccc1C=NNC(=S)NN=Cc1ccccc1[N+](=O)[O-] was tested. Which Potency did it give?
A: inconclusive: 7.08 µM [inhibitor, partial curve, poor fit]

Q: Which “activity, negative = active” value does the source give for Cc1occc1-c1nnc(SCCCC(=O)c2ccc(F)cc2)n1C here?
A: inactive: -4.48%

Q: Which Potency does the source give for N#CC1=C2SCC(O)(c3ccccc3)N2C(=O)CC1c1ccccc1F (stereo not given) here?
A: inconclusive: 7.08 µM [inhibitor, partial curve, poor fit]

Q: Which “activity, negative = active” value does the source give for CCN(CC)c1ccc(/C=N/NC(=O)C(O)c2ccccc2)cc1 (stereo not given) here?
A: inactive: -0.422%

Q: Which Potency does the source give for O=c1oc2ccccc2cc1-c1cn(-c2ccccc2)c(=S)[nH]1 here?
A: inconclusive: 2 µM [inhibitor, full curve, poor fit]

Q: Which Potency does the source give for O=C1CN(C(=O)c2cccc(Br)c2)c2ccccc2N1 here?
A: inconclusive: 11.2 µM [inhibitor, partial curve]

Q: CC(=O)N1CCc2nc3sc(C(=O)c4ccc(F)cc4)c(N)c3c(C(F)(F)F)c2C1 was tested. Which Potency did it give?
A: inconclusive: 11.2 µM [inhibitor, partial curve, poor fit]

Q: With CC(=O)Nc1ccc(NC(=O)C(C)OC(=O)c2ccccc2C(=O)c2ccc(Cl)c([N+](=O)[O-])c2)cc1 (stereo not given) as the molecule, how does the Potency read?
A: inconclusive: 17.8 µM [inhibitor, single point]

Q: With COc1ccc(CN2C(=O)c3ccccc3C2=O)cc1C(=O)Nc1ccccc1N1CCOCC1 as the molecule, how does the “activity, negative = active” value read?
A: inactive: 0.0125%

Q: Which “activity, negative = active” value does the source give for O=C(OCc1cnc(Cl)s1)c1ccccc1Cl here?
A: inactive: 0.567%

Q: CCOc1ccc(/C=C/C(=O)Nc2sc3c(c2C(=O)OC)C(C(=O)OC)CC3)cc1 (stereo not given) was tested. Which “activity, negative = active” value did it give?
A: inactive: -2.23%

Q: Cc1ccc(NC(=O)CSc2nc3ccccc3c3nc4ccccc4n23)cc1 was tested. Which Potency did it give?
A: inconclusive: 0.355 µM [inhibitor, full curve, poor fit]

Q: For COc1ccccc1N(C)c1cc2c(c3c1ccn3C)C1CCC2O1 (stereo not given), which Potency is on record?
A: inconclusive: 22.4 µM [inhibitor, single point]

Q: For CCOC(=O)c1c(C)c(C(=O)Nc2ccc3c(c2)OCCO3)c(C)n1C, which Potency is on record?
A: inconclusive: 25.1 µM [inhibitor, single point]

Q: With CCN1C(=O)/C(=C/C=C2/SCCN2C)SC1=S as the molecule, how does the Potency read?
A: inconclusive: 2.24 µM [inhibitor, partial curve, poor fit]

Q: COCCCn1c(=N)c(C(=O)NCC2CCCO2)cc2c(=O)n3cc(C)ccc3nc21 (stereo not given) was tested. Which “activity, negative = active” value did it give?
A: inactive: -1.88%

Q: With COC(=O)c1ccc(C(=O)NC2CCCc3c2cnn3-c2ccc(C)c(C)c2)cc1 (stereo not given) as the molecule, how does the Potency read?
A: inconclusive: 1.58 µM [inhibitor, full curve, poor fit]

Q: For O=C(COc1ccccc1)n1nc(-c2ccc(Cl)cc2)nc1NCc1ccco1, which Potency is on record?
A: inconclusive: 11.2 µM [inhibitor, single point]

Q: With O=C1ON=C(c2ccccc2)/C1=C/c1ccc(O)cc1 as the molecule, how does the Potency read?
A: inconclusive: 35.5 µM [inhibitor, single point]

Q: Cc1cccc(-c2onc3ccc(C(=O)/C=C/N(C)C)cc23)c1 was tested. Which “activity, negative = active” value did it give?
A: inactive: -3.13%

Q: COc1ccccc1C(=O)Nc1ccc(C)cc1C(=O)c1ccccc1 was tested. Which “activity, negative = active” value did it give?
A: inactive: -0.725%

Q: How did the Potency turn out when CN(C)c1ccc(/C=C/C(=O)c2ccc3c(c2)OCO3)cc1 was run?
A: inconclusive: 35.5 µM [inhibitor, partial curve, poor fit]

Q: Which Potency does the source give for Cc1ccc2oc(-c3cccc(NC(=S)NC(=O)/C=C/c4ccco4)c3)nc2c1 here?
A: inconclusive: 7.94 µM [inhibitor, partial curve]

Q: With CCOc1cc(/C=C2/SC(=S)N(Cc3ccccc3)C2=O)ccc1O as the molecule, how does the Potency read?
A: inconclusive: 14.1 µM [inhibitor, single point]

Q: With Cc1cnc(NC(=O)c2nn(C)cc2[N+](=O)[O-])s1 as the molecule, how does the Potency read?
A: inconclusive: 12.6 µM [inhibitor, single point]

Q: For O=Cc1ccc(O)c2ncccc12, which Potency is on record?
A: inconclusive: 2.51 µM [inhibitor, full curve, poor fit]

Q: For CCCCN(C(=O)Cn1ncc(Cl)c(Cl)c1=O)c1c(N)n(CC(C)C)c(=O)[nH]c1=O, which Potency is on record?
A: inconclusive: 22.4 µM [inhibitor, single point]

Q: For CC(=O)c1sc(-c2ccccc2)cc1NS(=O)(=O)c1ccc(C)cc1, which Potency is on record?
A: inconclusive: 22.4 µM [inhibitor, single point]

Q: Which “activity, negative = active” value does the source give for O=C(NCCc1ccccc1Cl)c1ccc2c(c1)nc1n2CCOC1 here?
A: inactive: 4.41%

Q: Which Potency does the source give for COc1ccc(C(=O)NC2CCCc3ccccc32)cc1[N+](=O)[O-] (stereo not given) here?
A: inconclusive: 7.94 µM [inhibitor, partial curve]

Q: Which “activity, negative = active” value does the source give for COCc1nnc(NC(=O)CSCc2ccccc2)s1 here?
A: inactive: -3.63%

Q: Which Potency does the source give for Cc1ccc2[nH]c(C)c(/C=C/c3cc[n+](C)cc3)c2c1 here?
A: active: 1.26 µM

Q: Cc1ccc(N(CC(=O)Nc2ccccc2-c2ccccc2)S(=O)(=O)c2ccccc2)c(C)c1 was tested. Which “activity, negative = active” value did it give?
A: inactive: 1.56%

Q: For COc1ccc(S(=O)(=O)Nc2cccc3c2O[C@H](CN(C)S(=O)(=O)c2ccccc2)[C@@H](C)CN([C@H](C)CO)C3=O)cc1, which “activity, negative = active” value is on record?
A: inactive: -4.77%

Q: For COc1ccc(/C=N/NC(=O)c2cccc(Br)c2)cc1CSc1ccccn1, which Potency is on record?
A: inconclusive: 31.6 µM [inhibitor, partial curve, poor fit]

Q: For O=C(N/N=C/c1cc(Cl)ccc1O)c1cccnc1, which “activity, negative = active” value is on record?
A: inactive: -16.8%

Q: With O=C(OCc1nnc(-c2ccccc2)o1)c1cc(S(=O)(=O)N2CCOCC2)c(Cl)cc1Cl as the molecule, how does the “activity, negative = active” value read?
A: inactive: 3.92%

Q: For Cn1c(-c2ccc3c(c2)OCO3)cnc1NCc1cccc(Cl)c1, which Potency is on record?
A: inconclusive: 35.5 µM [inhibitor, single point]

Q: How did the “activity, negative = active” value turn out when CCC(C)Sc1cccc(-c2nc3cc(C)ccn3c2NC2CCCCC2)c1 (stereo not given) was run?
A: inactive: -7.58%

Q: With Cc1cccc(C2C=C(c3ccc(C)c(C)c3)Nc3nnnn32)c1 (stereo not given) as the molecule, how does the Potency read?
A: inconclusive: 2.24 µM [inhibitor, full curve, poor fit]

Q: For CCOc1ccc(NC2=NCCC(=O)N2Cc2cccs2)cc1, which “activity, negative = active” value is on record?
A: inactive: 2.35%

Q: For O=C1/C(=C/c2ccncc2)CCc2ccccc21, which Potency is on record?
A: inconclusive: 25.1 µM [inhibitor, single point]
